Measurements as given in the supplement of paper PMC11417369.
This is one part of the list.

tested on: PF3D7_0420300 AP2 domain 1 (GST-tagged); experiment: gcPBM binding intensity (ln(normalized median fluorescence intensity)); higher = stronger DNA binding
Method in brief: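 GST-fused DNA-binding domains of P. falciparum, expressed in E. coli, were applied at about 25 μg on average for 1 h to an Agilent 4 × 180k array of primer-extended double-stranded 36-bp intergenic genomic probes and negative controls. Binding intensity is the highest Masliner-normalised natural-log median intensity across replicate spots of either probe orientation, measured with Alexa488 anti-GST antibody and a 488 nm scan.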

Point of comparison: “AAATTTTATGTATAATGTACACATAAATTTTTCTTT [XGTACX_site7266]”, “gcPBM binding intensity (ln)” value 9.06. Against it:
- AAGGAATGCATATAGGTGCTACACATAAAAATAAAA — higher, 9.42
- TACTTTTTTCCTATTATGTTTCTTATTTTTATAAAT [XGTACX_negctrl_site561] — higher, 9.6
- TTAAGTAGTACATACACACACATATACAAAAAGAAA [CACACA_site3972] — higher, 9.94
- TTTTTTTTTGAAAAAAGTACTTAATTTTTAAGAAGA [XGTACX_site3591] — lower, 8.33
- TCTAATAATAAATACACACACATATATATTTATATA [CACACA_site5169] — higher, 9.75
- ACATACATATATTTATGTACATATATATTTATGATT [XGTACX_site6485] — higher, 9.21
- TTTTGGTGTATAGTATTAATATAAAATAATTATATT [CACACA_negctrl_site47] — higher, 9.18
- AATTTATATTTATGTGCATGTAATAACTGTATATAA [TGCATGCA_site349] — higher, 9.21
- TAAACATTCTTATATAGTACCCATATTAAAATATAC [XGTACX_site8014] — higher, 9.12
- TTAGCTTATCATTACTGTACTTTATTCATATATATG [XGTACX_site8008] — higher, 9.48
- ATTTTTTTTTCTTGTACACACTATTTTATAATTTTA [CACACA_site6102] — higher, 9.78
- TATAAAAAAAAAAAAAAAAAAAAAAATATATATATA [CACACA_negctrl_site817] — lower, 9.02
- TATTATTTTTCATATGCATGCAAAAATAAAAAAATA [TGCATGCA_site350] — lower, 8.84
- ATTTTTTTGTATATATATGACTGGGGATATAATCAA [GTGCAC_negctrl_site274] — higher, 9.22
- AAAAAAAAAAAAAATTGTACTTAAATATATATATAT [XGTACX_site7604] — lower, 9.04
- AAATTAAAATAAAATAGTACATATATTTATATTTTT [XGTACX_site1687] — higher, 9.13
- TCAATAATAAAAAACACACACAAAAAAAAATAATTA [CACACA_site2798] — higher, 9.89
- AACAAAGTCATACATACATACATATATATATATATA [GTGCAC_negctrl_site632] — higher, 9.2
- AAAAAAAAAAAAAAAACACACATACACATATATTTT [CACACA_site7768] — higher, 9.58
- TATATTATTTATAGTAGTACATAAAATATAAATATT [XGTACX_site4417] — lower, 9.03
- ATAATACATACATACATACACACATATATATATATT [CACACA_site3576] — higher, 9.67
- TATTGTATTTCATATTGTACTAAAAAAAAAAAAAAG [XGTACX_site6694] — lower, 8.89
- TAAAAAAAAAAAAAAACACACATATAAATATTTATA [CACACA_site6702] — higher, 9.45
- TACATATATATATATGAACACACAAAAAGAATATTT [CACACA_site8421] — higher, 9.58
- ATAAGCATACATATTACACACATATAATATATATAT [CACACA_site2487] — higher, 9.57
- AGTGGATAAATTTATTCACACATTTTTTTTTTTTTT [CACACA_site5914] — higher, 9.15
- TCTTACTAATTTATGGGGACTTATCACCTATTCAGT [CACACA_negctrl_site652] — higher, 9.12
- TTTTATGAGAAACACACACACAAAAAAAAAAAAAAA [CACACA_site4129] — higher, 9.49
- CATGAATCCTAATAATGTACATAAGAATTCATAATG [XGTACX_site1607] — lower, 9
- TTATATATATGACTTTGTACATATACATATTTTTTA [XGTACX_site4669] — higher, 9.21
- GTATATTTTATTTTATGTACATATTCATTTTTTATT [XGTACX_site561] — higher, 9.68
- TCTCTTTTTCGTTCATGTACAAATAAATAAAAATAT [XGTACX_site6558] — higher, 9.11
- TATTATATATATGCACGTACAAAAATAATAAAGGTA [XGTACX_site3506] — higher, 9.38
- GTGGATATATGTATATGTACATATGTATGTATATAT [XGTACX_site2412] — higher, 9.4
- ATTTTTTTACTGGATCCATATTTGCTTTTTTATTTA [CACACA_negctrl_site1108] — higher, 9.72
- TATTAATAATTTTCATGTACATATGTATTTGTAATA [XGTACX_site858] — higher, 9.18
- ATATAATAAATGTCATGTACATACAACATTTTAACT [XGTACX_site7517] — higher, 9.22
- TGAATAAAGAAACACACACACATATATATATATGTA [CACACA_site17] — higher, 10
- TTTTTAATTTACTGTCATAGGTACCTTAACTTATCA [CACACA_negctrl_site1664] — the same, 9.06
- TACTTATGTTCGCACACATGCAAATTAAAAAAAAAA [TGCATGCA_site1023] — lower, 8.96
- TACATATACATATTGTGTACATAATAATTATTTATA [XGTACX_site7884] — higher, 9.15
- TTAATTAAGAAACACACACACATATATATATATATT [CACACA_site2290] — higher, 9.97
- AGCAACTAAAAAGGATACCCCATTAAAAAAAAATTA [XGTACX_negctrl_site489] — higher, 9.08
- TGTGTATAAAAAAAGTGTACACAAAGTAAGACTTTA [XGTACX_site3759] — higher, 9.23
- TACCAAAAAACGGCACGCATATGTATAAGAATATGT [XGTACX_negctrl_site470] — higher, 9.27
- AAATATATAAAAGTATGTACATATGAAAAATATATA [XGTACX_site6165] — higher, 9.54
- TTATAAAGAATTAGGAGTACAAATGCATATATAATA [XGTACX_site6580] — higher, 9.35
- TTATATAACATAACGATGTTTCAAAACATATTGTAT [CACACA_negctrl_site997] — higher, 9.16
- TTTAAAATTTAATTTTGTACATATACCAATTTTATT [XGTACX_site448] — lower, 9.01
- AATTAGCATAAATGGGTGCTACACAAAAATGCATGT [GTGCAC_site9640] — higher, 9.29
- ATATAATATATGTTATGTACATAGTTTTTATTGTTC [XGTACX_site7438] — higher, 9.34
- AATATATAATCAGATGAATTTTTTTTTTTTTTTTCA [CACACA_negctrl_site534] — lower, 8.92
- ATATAAATATGAAAAAGTACAAGCCATCAAGAAATC [XGTACX_site8140] — higher, 9.78
- AATTTTTTATTCTTTGCATGTCATCATATATAATAT [TGCATGCA_site549] — higher, 9.45
- ATATAATGTTAGGGTAGAGGAAGTAACTAATATAAA [CACACA_negctrl_site1153] — higher, 9.44
